Reference: PubChem BioAssay AID686970 (National Center for Advancing Translational Sciences (NCATS), 2013)
The whole screen tested about 360,000 compounds, of which about 6,000 (1.7%) were called active. This list was built around the results that the source calls inconclusive (neither active nor inactive); the mix of calls is not that of the screen. Calls follow the shape of the dose curve; as a rule, active = well fitted cell-killing curve with a large enough effect; inconclusive = small, poorly fitted or top-dose-only effect, or effect the other way; inactive = flat fitted curve, though single readings scatter. Potencies of inconclusive entries are left out as doubtful fits.

test: qHTS for induction of synthetic lethality in tumor cells producing 2HG: qHTS for the HT-1080-NT fibrosarcoma cell line; conditions: HT-1080-NT fibrosarcoma viability, CellTiter-Glo ATP luminescence, 48 h; activity, negative = less viability: at 46.1 µM (top of the series) unless noted;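 also: NT is the 2HG producing partner of a matched IDH1 knockdown line; nearly all actives have a fitted effect of over 55% in size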;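 as to activity, negative = less viability: 0% = DMSO-treated cells and -100% = media-only wells without cells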
Outline: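 HT-1080-NT; 750 cells/well; 5% FBS RPMI; 48 h compound, 37 degrees C; CellTiter-Glo luminescence; curve fitting and curve-class assignment.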
Potency is read from the fitted curve at half-maximal effect; tags tell the direction and shape of the fitted curve.

SMILES | Potency | activity, negative = less viability
Cc1cccc(/C=C/c2nc3ccccc3c(=O)[nH]2)c1 | inconclusive [cytotoxic, full curve, poor fit] | 
CO[C@H]1CN(C)C(=O)c2ccc(NS(=O)(=O)c3ccccc3F)cc2OC[C@H](C)NC[C@@H]1C |  | inactive: 15.4%
O=C(O)c1ccc(S(=O)(=O)c2ccc3c(c2)C(=O)N(c2ccc(Br)cc2)C3=O)cc1 |  | inactive: 0.255%
COC(=O)COc1ccc(Cl)cc1C1Nc2ccccc2C(=O)N1c1ccc(OC)cc1 (centres undefined) | inconclusive [cytotoxic, partial curve, poor fit] | 
CC[C@@]12C(=O)N(c3cccc(F)c3)C(=O)N1[C@H](c1ccc(F)cc1)[C@@H]1C(=O)N(C3CCCCC3)C(=O)[C@@H]12 |  | inactive: 0.0817%
CC(=O)Nc1cccc(-c2ccnc3c2CC(C)(C(=O)NCc2ccco2)O3)c1 (centres undefined) | inconclusive [cytotoxic, full curve] | 
COc1ccc(CCN2C(=O)CSC2=Nc2ccc(C(C)C)cc2)cc1OC | inconclusive [cytotoxic, partial curve] | 
COC(=O)[C@]12CCCCC=C1N(Cc1ccccc1)C(=O)[C@H](CC(=O)NCCCCc1ccccc1)C2 | inconclusive [cytotoxic, single point] | 
COc1ccccc1C(CCNCc1ccc(N(C)C)cc1)c1ccc(OC(C)C)cc1 (centres undefined) | inconclusive [cytotoxic, single point] | 
COc1ccc(CCn2c(=S)[nH]c(=O)c3cccnc32)cc1OC | inconclusive [cytotoxic, partial curve, poor fit] | 
O=C1CC(Sc2nnc(-c3ccccc3O)o2)C(=O)N1c1ccccc1 (centres undefined) | inconclusive [cytotoxic, single point] | 
O=C(NCCCOc1cccc(CN2CCCCC2)c1)c1ccc(Cl)c(Cl)c1 | active: 20.6 µM | 
Cc1ccc(C(=O)COc2ccc3ccc(=O)oc3c2)cc1 | inconclusive [rising, partial curve] | 
COCCSc1ccccc1C(=O)N1CCc2ccccc2C1 |  | inactive: 4.42%
Cc1ccsc1C(=O)N1CCCC(C(=O)c2cc(F)ccc2F)C1 (centres undefined) | inconclusive [rising, partial curve, poor fit] | 
CCOc1cc(/C=C(/C#N)c2nc3ccccc3[nH]2)ccc1Oc1ccc([N+](=O)[O-])cn1 |  | inactive: -12.7%
COc1cc(/C=N/n2cc(-c3ccccc3)[nH]c2=S)cc(OC)c1O | inconclusive [rising, partial curve] | 
COc1cccc(NC(=O)C2CCC(CNS(=O)(=O)c3cccc4cccnc34)CC2)c1 (centres undefined) |  | inconclusive: -31.4% [cytotoxic]
COc1ccc2nc(C)[nH]c(=O)c2c1 |  | inactive: 13.9%
O=C(O)c1ccccc1N=Nc1ccc(O)cc1 | inconclusive [cytotoxic, single point] | 
COc1cccc(Nc2nc(N)nc(CCl)n2)c1 | active: 7.31 µM | 
O=C1C(=C2SCCCS2)CC/C1=C\c1ccc(F)cc1 | inconclusive [rising, partial curve, poor fit] | 
CCc1ccc(C2C(C#N)=C(N)Oc3cc(N)ccc32)cc1 (centres undefined) |  | inactive: -24.3%

SMILES | Potency | activity, negative = less viability
CC(C)(C)N(Cc1ccccc1)C(=O)COC(=O)C1CCN(c2ccc(C(F)(F)F)cn2)CC1 | inconclusive [cytotoxic, single point] | 
CC(=O)Nc1ccc(Nc2cc(C(C)C)nc3c(-c4ccccc4)c(C)nn23)cc1 | inconclusive [cytotoxic, single point] | 
COc1ccc(C(C[N+](=O)[O-])c2c(-c3ccccc3)cc3ccccn23)cc1 (centres undefined) |  | inactive: -28.3%
COc1cc2nc(CN(C)Cc3nc4ccccc4c(=O)[nH]3)[nH]c(=O)c2cc1OC | active: 17.8 µM | 
CC(=O)O[C@H]1C(=O)[C@@]2(C)[C@H]([C@H](OC(=O)c3ccccc3)[C@]3(O)C[C@H](OC(=O)[C@H](O)[C@@H](NC(=O)c4ccccc4)c4ccccc4)C(C)=C1C3(C)C)[C@]1(OC(C)=O)CO[C@@H]1C[C@@H]2O | inconclusive [cytotoxic, full curve, poor fit] | 
CCN(CC)Cc1c(C(=O)N/N=C/c2cccs2)nnn1-c1nonc1N |  | inactive: -4.46%
CC1=NN(c2ccccc2)C(=O)/C1=C\C=C\c1ccccc1 | active: 4.11 µM | 
N=c1n(Cc2ccc(Cl)cc2)c2ccccc2n1CC(O)c1ccco1 (centres undefined) | active: 23.1 µM | 
CCCc1nc2ccc(C(=O)OC)cn2c1Cc1ccc(C)cc1 | inconclusive [cytotoxic, single point] | 
CCCCNc1ncnc2c1cnn2Cc1ccc(Cl)cc1 | inconclusive [cytotoxic, single point] | 
CN(c1cc2c(c3c1ccn3C)C1CCC2O1)C1CCCCC1 (centres undefined) | inconclusive [cytotoxic, single point] | 
NC(=O)CSc1cn(Cc2ccc(F)cc2)c2ccccc12 | inconclusive [cytotoxic, partial curve] | 
CC(NC(=O)Nc1ccc(Cl)cc1)C(c1cccs1)N1CCOCC1 (centres undefined) | inconclusive [cytotoxic, single point] | 
COc1ccc(OC)c(NC(=O)CCOc2cccc(C)c2)c1 |  | inconclusive: -31.6% [cytotoxic]
O=S(=O)(c1ccc(NC(=S)N/N=C/c2c3ccccc3cc3ccccc23)cc1)N1CCOCC1 | inconclusive [cytotoxic, partial curve] | 
CCOC(=O)C(=O)NNc1ccc(C)cc1 | inconclusive [cytotoxic, single point] | 
Cn1cnc2c(cnn2-c2ccccc2)c1=O | inconclusive [rising, single point] | 
CN(C)C(=O)C#Cc1ccccc1 |  | inactive: 15.9%
COc1nc(-c2ccccc2)cc(-c2ccc(OC)c(OC)c2)n1 |  | inactive: -7.59%
CC(=O)Nc1ccc(S(=O)(=O)N2c3ccc(F)cc3CCC2C)cc1 (centres undefined) | inconclusive [cytotoxic, single point] | 
CCCc1ccc2oc(C(=O)N(Cc3ccncc3)CC3CCCO3)c(C)c2c1 (centres undefined) | inconclusive [cytotoxic, single point] | 
O=C(Nc1ccncc1)c1ccc(Cl)c(S(=O)(=O)N2CCc3ccccc32)c1 | inconclusive [cytotoxic, partial curve, poor fit] | 
COc1ccc(-c2csc(NC(=O)Cc3cc(OC)c(OC)c(OC)c3)n2)cc1OC |  | inactive: -10.7%

SMILES | Potency | activity, negative = less viability
COc1ccc(C(=O)N/N=C/c2ccccn2)cc1 | inconclusive [cytotoxic, single point] | 
CC(C)c1[nH]nc2c1C(C1C=CCCC1)C(C#N)=C(N)O2 (centres undefined) | inconclusive [cytotoxic, single point] | 
CC(C)CNC(=O)/C=C/c1cccs1 |  | inactive: 14.5%
Cc1ccc(-n2c(C)csc2=N)cc1 | inconclusive [cytotoxic, single point] | 
CC(=O)Nc1ncc(Cc2cccc(Cl)c2Cl)s1 |  | inconclusive: -5.45% [cytotoxic]
O=C1N[C@@H](Cc2ccccc2)C(=O)N2[C@H]1C[C@]1(Br)c3ccccc3N(S(=O)(=O)c3ccccc3)[C@H]21 | inconclusive [rising, full curve] | 
Cc1nn(-c2nc3ccccc3s2)c(N)c1-c1ccc(Cl)cc1 |  | inconclusive: 14.4%
CC1(C(=O)Nc2ccc(Cl)cc2)Cc2c(-c3ccc4c(c3)OCO4)ccnc2O1 (centres undefined) | inconclusive [cytotoxic, single point] | 
O=C(CC1C(=O)NCCN1C(=O)Nc1ccc(Cl)cc1)Nc1ccc(F)cc1 (centres undefined) | inconclusive [cytotoxic, single point] | 
C[C@H]1COc2cc(N(C)CCO)ccc2S(=O)(=O)N1 |  | inactive: 19%
COc1ccc(C(=O)NC2CCCc3c2cnn3-c2ccccc2F)o1 (centres undefined) | inconclusive [cytotoxic, single point] | 
CN1CC=C2C(C#N)=C(N)C(C#N)(C#N)C(c3ccsc3)C2C1 (centres undefined) |  | inactive: -1.73%
Cc1ccc(NC(=O)CCc2c[nH]c3ccccc23)nc1 | inconclusive [cytotoxic, full curve] | 
COc1cccc(NC(=O)Cn2c(=O)n(-c3ccccc3)c(=O)c3oc4ccccc4c32)c1 | inconclusive [cytotoxic, single point] | 
CSc1cccc(NC(=O)N2CCc3ccc(NC(=O)c4ccccn4)cc3C2)c1 | inconclusive [cytotoxic, partial curve] | 
O=C(Nc1cccc(S(=O)(=O)N2CCOCC2)c1)c1cccc(S(=O)(=O)N2CCCC2)c1 |  | inactive: 5.2%
CCn1ncc(C2=NOC(C(=O)Nc3ccc(C)cc3)C2)c1C (centres undefined) |  | inactive: 4.49%
CCc1ccc(CN(C)CC(=O)Nc2ccc(S(=O)(=O)N3CCOCC3)cc2)cc1 |  | inactive: -0.685% [at 9.24 µM]
CCCOc1ccccc1-n1sc2c(c1=S)-c1cc(OC)cc3c1N(C(=O)C3=O)C2(C)C | inconclusive [cytotoxic, single point] | 
COc1cccc(CNS(=O)(=O)c2ccc3c(c2)CC(C)N3C(=O)C2CC2)c1 (centres undefined) | inconclusive [cytotoxic, single point] | 
Cc1cccn2c(=O)c3cc(C(=O)NCCc4ccccc4)c(=N)n(Cc4ccco4)c3nc12 | active: 6.51 µM | 
CC1(O)CC(c2ccc(Cl)cc2)=NN1C(=O)c1ccc([N+](=O)[O-])cc1 (centres undefined) | active: 10.3 µM | 
O=C(Nc1cccc([N+](=O)[O-])c1)c1ccc(N2CCCC2=O)cc1 |  | inconclusive: 30.5%
